Assay results published in PubChem BioAssay AID588342 (National Center for Advancing Translational Sciences (NCATS), 2011).
Among all 360,000 compounds or so, about 25,000 (6.9%) were called active. Inconclusive means that the source gave no clear call. Such entries were picked first, then a sample of the others. Calls follow the shape of the dose curve; as a rule, active = well fitted inhibition curve with a large enough effect; inconclusive = small, poorly fitted or top-dose-only effect; inactive = flat fitted curve, though single readings scatter. Where the call is inconclusive, the potency comes from a doubtful curve fit.

target: Luciferin 4-monooxygenase (Photinus pyralis) (UniProt P08659); test: qHTS profiling assay for firefly luciferase inhibitor/activator using purifed enzyme and Km concentrations of substrates (counterscreen for miR-21 project); conditions: purified FLuc, luminescence inhibition; activity change, negative = inhibition: at 57.5 µM (top of the series); also: nearly all actives have a fitted effect of over 55% in size;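 as to activity change, negative = inhibition: plate controls were vehicle for no effect and reference inhibitor for full effect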
Procedure, shortened: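 Purified P. pyralis luciferase (10nM final) with 10uM D-luciferin and 10uM ATP (Km levels) in 50mM Tris acetate pH 7.5, 10mM Mg acetate, 0.01% Tween-20, 0.05% BSA; qHTS 6-point titration, ~60 µM downward; luminescence read.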
Potency is read from the fitted curve at half-maximal effect; tags tell the direction and shape of the fitted curve.

Sequence of UniProt P08659 (P08659 whole entry, looked up): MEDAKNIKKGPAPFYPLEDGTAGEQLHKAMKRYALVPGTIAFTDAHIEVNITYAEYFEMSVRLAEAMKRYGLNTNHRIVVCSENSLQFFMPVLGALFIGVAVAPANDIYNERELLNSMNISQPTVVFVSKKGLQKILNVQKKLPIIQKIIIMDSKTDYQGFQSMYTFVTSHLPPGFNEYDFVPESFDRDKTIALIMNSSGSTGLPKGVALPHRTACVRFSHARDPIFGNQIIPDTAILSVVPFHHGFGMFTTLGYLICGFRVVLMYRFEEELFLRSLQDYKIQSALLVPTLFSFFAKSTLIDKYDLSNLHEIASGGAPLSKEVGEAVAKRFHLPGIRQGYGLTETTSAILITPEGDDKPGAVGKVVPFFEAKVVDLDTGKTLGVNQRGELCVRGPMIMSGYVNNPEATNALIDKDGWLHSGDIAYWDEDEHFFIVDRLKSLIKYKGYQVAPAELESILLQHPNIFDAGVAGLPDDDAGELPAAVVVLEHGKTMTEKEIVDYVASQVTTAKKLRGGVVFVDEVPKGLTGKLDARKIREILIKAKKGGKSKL

Structure (SMILES)	Potency	activity change, negative = inhibition
CCOC(=O)/C(=N\Nc1ccc(Cl)cc1)c1csc(Nc2ccccc2)n1	inconclusive: 13.5 µM [inhibitor, partial curve]	
COc1ccc(Cn2c(C(=O)O)c(CNCc3ccco3)c3ccc(OC)cc32)cc1		inactive: -8.72%
COc1ccc(-c2cn3cccnc3n2)cc1NC(=O)c1ccc(Br)o1	inconclusive: 26.9 µM [inhibitor, single point]	
CCNc1c(C(=O)O)ccc2c1C(=O)c1ccccc1C2=O	inconclusive: 21.3 µM [inhibitor, single point]	
Cc1ccc(NC(=O)c2ccc(=O)[nH]n2)cc1C	inconclusive: 37.9 µM [inhibitor, single point]	
Cc1cc(C(=O)N/N=C/c2ccc3c(c2)OCO3)c(C)n1-c1ccc(F)cc1	inconclusive: 26.9 µM [inhibitor, single point]	
CCOC(=O)/C=C/C(=O)N1CCc2ccccc21	active: 10.7 µM	
O=c1[nH]c(SCc2ccc(Cl)cc2)nc2c1CCC2	inconclusive: 26.9 µM [inhibitor, partial curve, poor fit]	
COc1ccccc1C(=O)OCC(=O)c1cccc([N+](=O)[O-])c1	inconclusive: 23.9 µM [inhibitor, single point]	
Cc1ccc(NC(=O)c2oc3ccccc3c2NC(=O)c2ccc3c(c2)OCO3)cc1	active: 6.75 µM	
CC(C)C(=O)Nc1ccc(C(=O)c2ccccc2)cc1	inconclusive: 23.9 µM [inhibitor, single point]	
Cc1ccc(-n2nc3c(=O)n(CCCC(=O)NCCc4ccccc4Cl)nc(C)c3c2C)cc1	inconclusive: 21.3 µM [inhibitor, partial curve, poor fit]	
Cc1ccc(-c2cn(-c3cccc(Cl)c3)c(S(=O)(=O)CC(=O)Nc3ccccc3F)n2)cc1	inconclusive: 10.7 µM [inhibitor, partial curve, poor fit]	
C/C(CC(=O)Nc1ccc2c(c1)OCO2)=N\NC(=O)c1ccc(N)cc1	inconclusive: 19 µM [inhibitor, partial curve, poor fit]	
O=c1c2ccccc2nc(N/N=C/c2ccc(O)cc2)n1O	active: 2.39 µM	
COC(=O)CSc1ncnc2c1cnn2-c1ccc(C)cc1C	inconclusive: 37.9 µM [inhibitor, partial curve, poor fit]	
COc1ccc(NC(=O)CN2CCc3ccccc3C2)c(OC)c1	inconclusive: 26.9 µM [inhibitor, single point]	
CCOc1ccc(CN2CCc3nc(Nc4ccc5c(c4)OCCO5)ncc3C2)cc1	inconclusive: 26.9 µM [inhibitor, partial curve, poor fit]	
Cc1cccc(-c2noc(CCC(=O)NCCc3ccccc3)n2)c1		inactive: -2.04%
O=C(COC(=O)CCc1ccccc1)Nc1ccccc1OC(F)F	inconclusive: 21.3 µM [inhibitor, partial curve, poor fit]	
S=C(N/N=C/c1ccccc1Cl)Nc1cccc(Cl)c1Cl	inconclusive: 7.57 µM [inhibitor, partial curve, poor fit]	
COc1ccc(C(=O)Nc2cccc(S(=O)(=O)NC3=NCCCCC3)c2)cc1	inconclusive: 12 µM [inhibitor, partial curve]	
Clc1cccc(N/N=C(\Cc2nc3ccccc3[nH]2)c2ccccc2)c1	inconclusive: 37.9 µM [inhibitor, single point]	
C=CCSc1cc(C)nc2c(-c3ccc(Cl)cc3)c(C)nn12	inconclusive: 12 µM [inhibitor, partial curve, poor fit]	

Structure (SMILES)	Potency	activity change, negative = inhibition
CCC(Cc1ccccc1)NC(=O)C1CCN(S(=O)(=O)c2ccc3c(c2)CC(C)N3C(C)=O)CC1 (stereo unspecified)		inactive: -1.07%
CCN1CCN(CCCNC(=O)c2ccc(/C=C3/Sc4ccccc4N(Cc4ccccc4F)C3=O)cc2)CC1	inconclusive: 37.9 µM [inhibitor, single point]	
C1=C(CCNc2ncnc3nc[nH]c23)CCCC1	inconclusive: 16.9 µM [inhibitor, partial curve]	
Cc1ccc(N(Cc2cccs2)C(=O)c2ccccc2Cl)cc1	inconclusive: 13.5 µM [inhibitor, partial curve, poor fit]	
CC(C)C(=O)Nc1ccc(NC(=O)c2ccccc2Cl)nc1	active: 21.3 µM	
Cc1ccc(C)c(N2C(=O)C3C4C=CC(CC4)C3C2=O)c1 (stereo unspecified)	inconclusive: 30.1 µM [inhibitor, partial curve, poor fit]	
O=S(=O)(c1ccc(NCc2ccccc2)cc1)N1CCOCC1		inactive: 2.24%
COc1cc2[nH]c(Cl)c([N+](=O)[O-])c2cc1OC		inactive: -4.82%
C/C=C/C(=O)OCC(=O)Nc1cccc(Br)c1		inactive: 6.45%
COc1cc2c(cc1OC)CN(c1nc(CN3CCCCC3)nc3sc4c(c13)CCCC4)CC2		inactive: -2.99%
S=C(NCC1CCCO1)N1CCN(c2nc(-c3ccccc3)cs2)CC1 (stereo unspecified)	inconclusive: 21.3 µM [inhibitor, single point]	
Cc1cccc(NC(=O)c2ccc(NCCO)c([N+](=O)[O-])c2)n1	inconclusive: 16.9 µM [inhibitor, partial curve]	
N#Cc1cc(Br)ccc1N=C1CCCN1c1ccccc1	inconclusive: 30.1 µM [inhibitor, partial curve, poor fit]	
CCCCCCC(=O)NNC(=O)c1c(O)c2ccccc2n(CC)c1=O	inconclusive: 23.9 µM [inhibitor, partial curve, poor fit]	
O=C(Nc1ccc(S(=O)(=O)Nc2cnc3ccccc3n2)cc1)c1ccc([N+](=O)[O-])cc1Cl	inconclusive: 37.9 µM [inhibitor, single point]	
CCCn1c(NCc2cccc(OC)c2O)nc2ccccc21	inconclusive: 37.9 µM [inhibitor, single point]	
COc1ccc(C2=C(C)C(N3CCC(C(=O)Nc4ccc(F)cc4C)CC3)=NS2(=O)=O)cc1		inactive: -0.947%
C(=N\Nc1nc2ccccc2[nH]1)/c1ccncc1	inconclusive: 23.9 µM [inhibitor, partial curve]	
Brc1cccc(-c2cnn3c(-c4ccccc4)cc(-c4ccccc4)nc23)c1		inactive: -1.98%
O=C(Nc1ccc(Cl)c(C(F)(F)F)c1)C(Cc1ccccc1)NS(=O)(=O)c1ccc(Br)s1 (stereo unspecified)		inactive: 3.29%
COc1ccc(OC)c(NC(=O)c2ccc(CN3CCOCC3)cc2)c1	inconclusive: 26.9 µM [inhibitor, partial curve, poor fit]	
COCCNc1ncnc2c1[nH]c1ccccc12		inactive: -13.2%
CCN(CC)C(=O)CN1C(=O)/C(=C/c2ccccc2)SC1=S	inconclusive: 15.1 µM [inhibitor, partial curve]	
CN(CCOc1ccccc1)C(=S)Nc1ccc(OC(F)F)cc1		inactive: -0.939%

Structure (SMILES)	Potency	activity change, negative = inhibition
O=C(Oc1ccc2c(c1)OCC2=O)c1ccc(Cl)cc1	inconclusive: 2.69 µM [inhibitor, full curve]	
O=C(NCCc1ccc(F)cc1)C(=O)NCC(c1ccco1)S(=O)(=O)c1cccs1 (stereo unspecified)		inactive: -5.06%
O=C(COc1ccccc1)OCC(=O)c1c[nH]c2ccccc12	inconclusive: 26.9 µM [inhibitor, single point]	
CCc1ccccc1NC(=O)c1ccc2nc(C(C)C)oc2c1		inactive: -1.72%
O=C(c1ccc(-c2nnc(-c3ccccc3)o2)cc1)N1CCCCCC1	active: 4.78 µM	
c1ccc(Cc2nn3c(COc4ccccc4)nnc3s2)cc1	inconclusive: 23.9 µM [inhibitor, single point]	
Cc1ccc(C)c(/C=N/Nc2ccccn2)c1	inconclusive: 26.9 µM [inhibitor, partial curve, poor fit]	
CCC(C)Sc1ccc(-c2nc3ccc(C)cn3c2NCc2ccccc2)cc1OC (stereo unspecified)	active: 15.1 µM	
CCCSc1ccc([C@@H]2[C@H]3C(=O)N(CC)C(=O)[C@H]3[C@]3(C(=O)OC)CCCCN23)cc1		inactive: -3.91%
Cc1ccc(S(=O)(=O)N2CCCCC2)cc1NC(=O)c1ccncc1		inactive: -1.06%
Cn1c(=O)c2c(ncn2CC(=O)Nc2nccs2)n(C)c1=O		inactive: 6.66%
CC(=O)c1ccc(NC(=O)[C@@H]2CCCN2C(=O)OC(C)(C)C)cc1	inconclusive: 16.9 µM [inhibitor, partial curve]	
CCSc1nnc(NC(=O)c2cc(=O)c3cc(C)c(C)cc3o2)s1	inconclusive: 26.9 µM [inhibitor, partial curve]	
CCc1cnc2c(c1SCC(=O)c1ccc(Cl)cc1)c(=O)n(C)c(=O)n2C		inactive: 2.31%
CCOc1ncccc1-c1nc(-c2cccs2)no1	inconclusive: 26.9 µM [inhibitor, partial curve, poor fit]	
CC(=O)Oc1ccc2nc(-c3cccs3)oc(=O)c2c1	inconclusive: 6.75 µM [inhibitor, partial curve]	
CCN1C(=O)c2ccccc2Sc2ccc(NC(=O)COc3ccc(Cl)cc3)cc21		inactive: 4.45%
O=C1NC(=S)CN1c1ccccc1	inconclusive: 19 µM [inhibitor, partial curve, poor fit]	
CN1CCN(c2ncc3c(n2)CCN(Cc2cc(Br)cs2)C3)CC1		inactive: -4.95%
CCOc1ccc(-c2cnc(NCc3ccc(C(F)(F)F)cc3)n2C)cc1		inactive: 4.18%
COc1ccc(S(=O)(=O)NCCc2sc(C)nc2C)cc1F		inactive: -3.38%
Cn1c(=O)n(C/C=C/c2ccccc2)c(=O)c2c1nc1n2CCN1c1ccc(F)cc1	inconclusive: 33.8 µM [inhibitor, partial curve, poor fit]	
O=C(CCCc1ccccc1)NCc1ccccc1Cl	inconclusive: 37.9 µM [inhibitor, partial curve, poor fit]	
